The full ranking holds about 18,000 sequences; the median of “TetR repression strength (sort-seq, GFP reporter)” is about 0.23, and the highest 2% start at about 0.68. Some of the results follow.
The sequences below were run against TetR (class B, Tn10) (UniProt P04483) (assay: TetR repression strength (sort-seq, GFP reporter) (relative to tetO2 = 1); higher = stronger repression). Conditions: E. coli.
In short: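 E. coli SIG10-MAX carried a low-copy plasmid library with eight randomized operator positions between a constitutive promoter and sfGFP, with TetR constitutively expressed. Cells grew 5 h at 37 °C in LB with 50 µg/mL chloramphenicol, then 10^6 cells were FACS-sorted into 13 fluorescence bins, each Illumina-sequenced. Repression strength is the top bin index plus one minus the read-weighted mean bin, divided by the wild-type operator value. Three independent transformations; variants with ≥30 reads in all replicates and CV ≤0.5 were averaged.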

Chain of UniProt P04483 (P04483 whole entry): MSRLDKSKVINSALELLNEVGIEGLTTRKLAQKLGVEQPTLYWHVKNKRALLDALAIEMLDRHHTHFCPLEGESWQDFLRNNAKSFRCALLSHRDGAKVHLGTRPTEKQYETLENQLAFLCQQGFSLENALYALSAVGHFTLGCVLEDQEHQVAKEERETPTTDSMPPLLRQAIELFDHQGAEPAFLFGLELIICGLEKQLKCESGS

Sequence | TetR repression strength
TCCCTTTGAGTAGATGAGA | 0.173
TCCCTAGCAGTTGCGGAGA | 0.38
TCCCAGTTAGTGTTTGAGA | 0.366
TCCCTCTCAGTGGTTGAGA | 0.198
TCCCGCAAAGTAGGGGAGA | 0.149
TCCCGGATAGTAAAGGAGA | 0.273
TCCCGGCCAGTTAAGGAGA | 0.274
TCCCCCCAAGTAGACGAGA | 0.233
TCCCGCTCAGTAGTCGAGA | 0.246
TCCCTTTAAGTAGCCGAGA | 0.238
TCCCGGCGAGTTAGAGAGA | 0.12
TCCCTTTTAGTCAGGGAGA | 0.137
TCCCCGCCAGTTCGGGAGA | 0.19
TCCCGCGGAGTTGGCGAGA | 0.165
TCCCAGTCAGTATTTGAGA | 0.165
TCCCAATGAGTGCGCGAGA | 0.248
TCCCGTTAAGTGACGGAGA | 0.132
TCCCTTTCAGTGATAGAGA | 0.785
TCCCGAGTAGTAATCGAGA | 0.232
TCCCCATGAGTGGGTGAGA | 0.06
TCCCCTGAAGTAGTCGAGA | 0.428
TCCCCGCAAGTATGAGAGA | 0.321
TCCCTTCGAGTCGTGGAGA | 0.293
TCCCTTGTAGTCAAAGAGA | 0.1
TCCCTGTAAGTTATGGAGA | 0.223
TCCCTGTTAGTGGGTGAGA | 0.102

Sequence | TetR repression strength
TCCCGTTTAGTAGCAGAGA | 0.248
TCCCCCCCAGTTGTGGAGA | 0.523
TCCCTGTCAGTAGCCGAGA | 0.255
TCCCTAGTAGTGGTAGAGA | 0.21
TCCCACCTAGTCGCCGAGA | 0.278
TCCCTAAGAGTTACTGAGA | 0.3
TCCCCTGTAGTGCGTGAGA | 0.126
TCCCGGGGAGTCCAGGAGA | 0.247
TCCCCCAAAGTAGGTGAGA | 0.0427
TCCCCATAAGTTCTGGAGA | 0.224
TCCCCTGGAGTGGGGGAGA | 0.217
TCCCGGGAAGTCGTGGAGA | 0.256
TCCCACAGAGTTATGGAGA | 0.179
TCCCCTCTAGTGACAGAGA | 0.243
TCCCAGCTAGTTTCTGAGA | 0.207
TCCCGAGCAGTTAGCGAGA | 0.0122
TCCCTGTCAGTGAGCGAGA | 0.341
TCCCCGCCAGTATGTGAGA | 0.278
TCCCATTCAGTGGCTGAGA | 0.44
TCCCCGCGAGTATAGGAGA | 0.329
TCCCGCAGAGTTAGGGAGA | 0.187
TCCCTACTAGTGGTTGAGA | 0.298
TCCCTCTGAGTTATTGAGA | 0.364
TCCCGGTAAGTCCCGGAGA | 0.00576
TCCCCTTCAGTGCAGGAGA | 0.207
TCCCGATAAGTCATTGAGA | 0.204

Sequence | TetR repression strength
TCCCATAGAGTGCGGGAGA | 0.0603
TCCCATATAGTAAGTGAGA | 0
TCCCATACAGTTTCAGAGA | 0.263
TCCCTGTCAGTATTTGAGA | 0.378
TCCCATTCAGTTCTAGAGA | 0.515
TCCCACCCAGTGTGGGAGA | 0.202
TCCCAACGAGTAACGGAGA | 0.304
TCCCGTCTAGTGGGGGAGA | 0.224
TCCCCATCAGTGTAGGAGA | 0.0525
TCCCCATTAGTGCCTGAGA | 0.283
TCCCTTCAAGTCAGAGAGA | 0.144
TCCCCTATAGTAGCGGAGA | 0.0977
TCCCAGTAAGTGTCGGAGA | 0.811
TCCCCAGTAGTACCCGAGA | 0.269
TCCCAGACAGTAACAGAGA | 0.206
TCCCTTTGAGTAGAGGAGA | 0.167
TCCCTAGTAGTGTGCGAGA | 0.0393
TCCCAGGGAGTGTAAGAGA | 0.179
TCCCCGTGAGTCTTTGAGA | 0.37
TCCCCTAAAGTTTTAGAGA | 0.251
TCCCAATCAGTATAGGAGA | 0.361
TCCCTGACAGTCGGTGAGA | 0.106
TCCCGGCGAGTTGATGAGA | 0.331
TCCCTCTCAGTGGATGAGA | 0.386
TCCCAGGGAGTGGGAGAGA | 0.127
TCCCTGCAAGTGGAAGAGA | 0.276

Sequence | TetR repression strength
TCCCTGGGAGTCCCAGAGA | 0.115
TCCCCGGTAGTGGTGGAGA | 0.137
TCCCTCGTAGTAGAAGAGA | 0.184
TCCCCATTAGTCGCCGAGA | 0.26
TCCCGTGTAGTTTCGGAGA | 0.186
TCCCATGGAGTGACAGAGA | 0.553
TCCCCAGAAGTGGCTGAGA | 0.284
TCCCGGTTAGTTCTTGAGA | 0.0327
TCCCGGGGAGTTTCAGAGA | 0.249
TCCCTGTTAGTACGAGAGA | 0.104
TCCCTTTGAGTGGGGGAGA | 0.214
TCCCGTAAAGTTATAGAGA | 0.17
TCCCTTGCAGTATCTGAGA | 0.0927
TCCCTTGCAGTCGACGAGA | 0.213
TCCCTGTGAGTATTGGAGA | 0.205
TCCCGCGAAGTGTGAGAGA | 0.286
TCCCGCGAAGTCGTCGAGA | 0.17
TCCCATGGAGTACGAGAGA | 0.181
TCCCTCAAAGTGGAAGAGA | 0.199
TCCCGGGTAGTAAGGGAGA | 0.163
TCCCGGTGAGTTCCCGAGA | 0.0697
TCCCAGGAAGTTGATGAGA | 0.143
TCCCATAGAGTATGGGAGA | 0.0311
TCCCCGAGAGTGACAGAGA | 0.213
